{"source": "paper PMC4336329", "about": "(PLoS ONE, 2015)", "note": "Among all 310,000 compounds or so, about 2,200 (0.71%) showed an effect of 50% or more. Effects have a minus sign here. The list shows a part of the results."}
{"target": "human ether-à-go-go-related gene (hERG) potassium channel (human, UniProt Q12809)", "sequence (Q12809 whole entry, looked up)": "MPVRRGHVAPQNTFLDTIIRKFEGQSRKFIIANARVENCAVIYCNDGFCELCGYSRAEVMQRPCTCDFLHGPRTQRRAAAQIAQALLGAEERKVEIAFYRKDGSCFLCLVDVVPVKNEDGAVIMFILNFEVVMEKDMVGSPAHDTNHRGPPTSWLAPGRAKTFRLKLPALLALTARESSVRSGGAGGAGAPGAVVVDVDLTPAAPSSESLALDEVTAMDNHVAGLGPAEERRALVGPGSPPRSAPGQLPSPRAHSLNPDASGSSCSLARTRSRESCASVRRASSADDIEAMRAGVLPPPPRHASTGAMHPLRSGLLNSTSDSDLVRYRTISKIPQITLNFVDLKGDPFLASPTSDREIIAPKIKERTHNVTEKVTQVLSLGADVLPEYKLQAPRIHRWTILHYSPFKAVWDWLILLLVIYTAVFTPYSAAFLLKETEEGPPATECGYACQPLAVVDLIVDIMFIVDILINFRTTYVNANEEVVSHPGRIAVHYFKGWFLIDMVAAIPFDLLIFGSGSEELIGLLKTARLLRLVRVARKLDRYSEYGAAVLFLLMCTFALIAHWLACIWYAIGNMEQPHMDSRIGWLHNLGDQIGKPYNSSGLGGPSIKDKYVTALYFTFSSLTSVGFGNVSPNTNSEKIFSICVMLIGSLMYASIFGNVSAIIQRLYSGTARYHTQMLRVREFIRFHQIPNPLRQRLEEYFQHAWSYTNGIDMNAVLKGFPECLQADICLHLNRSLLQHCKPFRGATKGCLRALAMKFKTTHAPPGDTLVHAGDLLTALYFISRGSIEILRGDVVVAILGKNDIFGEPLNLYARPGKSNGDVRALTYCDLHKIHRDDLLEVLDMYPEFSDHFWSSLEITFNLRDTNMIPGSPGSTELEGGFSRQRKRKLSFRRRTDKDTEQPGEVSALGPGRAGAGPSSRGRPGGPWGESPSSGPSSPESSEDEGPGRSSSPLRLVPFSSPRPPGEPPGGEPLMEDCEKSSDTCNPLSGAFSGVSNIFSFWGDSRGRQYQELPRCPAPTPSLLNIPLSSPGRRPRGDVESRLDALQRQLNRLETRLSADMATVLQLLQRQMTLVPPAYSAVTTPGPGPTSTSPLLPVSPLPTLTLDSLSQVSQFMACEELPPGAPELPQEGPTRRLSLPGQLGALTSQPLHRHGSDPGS", "experiment": "primary screen, population patch clamp on CHO cells stably expressing hERG", "units": {"hERG current change (%, negative = inhibition) at 1uM": "%"}}
{"smiles": "Cc1ccc2c(c1)CCCN2N=O", "hERG current change (%, negative = inhibition) at 1uM": 9.51}
{"smiles": "COC(=O)COc1nsnc1N1CCOCC1", "hERG current change (%, negative = inhibition) at 1uM": 3.27}
{"smiles": "COc1ccccc1N1CCN(Cc2nc(N)nc(Nc3ccccc3)n2)CC1", "hERG current change (%, negative = inhibition) at 1uM": -33.8}
{"smiles": "O=C(NC(=S)NC1CCSC1=O)c1ccccc1Cl", "note": "(stereo not shown)", "hERG current change (%, negative = inhibition) at 1uM": 7.03}
{"smiles": "CCOc1ccc(N=Nc2cc(C(C)C)ccc2O)cc1", "hERG current change (%, negative = inhibition) at 1uM": 7.08}
{"smiles": "C/C(CCC12CC3CC(CC(C3)C1)C2)=N\\NC(N)=S", "hERG current change (%, negative = inhibition) at 1uM": 18.2}
{"smiles": "O=C1N=C(N2CCOCC2)S/C1=C/c1ccc(-c2ccccc2Cl)o1", "hERG current change (%, negative = inhibition) at 1uM": 8.95}
{"smiles": "COCCSc1ccccc1C(=O)Nc1cc(C)ccn1", "hERG current change (%, negative = inhibition) at 1uM": 11}
{"smiles": "Cc1ccc(C(=O)NCCc2csc(C)n2)cc1", "hERG current change (%, negative = inhibition) at 1uM": -5.77}
{"smiles": "CCN(CC)CCn1c(NS(=O)(=O)c2ccc(C)cc2)nc2ccccc21", "hERG current change (%, negative = inhibition) at 1uM": -17.8}
{"smiles": "Cc1ccccc1C(=O)NCCN1CCOCC1.Cl", "hERG current change (%, negative = inhibition) at 1uM": 6.1}
{"smiles": "Cc1c(C#N)c2ncn(CC#N)c(=O)c2n1-c1ccccc1", "hERG current change (%, negative = inhibition) at 1uM": 5.01}
{"smiles": "O=C(c1ccc(Cl)c(S(=O)(=O)N2CCCC2)c1)N1CCCC(C(F)(F)F)C1", "note": "(stereo not shown)", "hERG current change (%, negative = inhibition) at 1uM": -4.61}
{"smiles": "Cc1ccc([N+](=O)[O-])cc1S(=O)(=O)NCCc1cn2ccccc2n1", "hERG current change (%, negative = inhibition) at 1uM": 9.23}
{"smiles": "CC(C)C(NC(=O)c1ccccc1Br)c1ccccc1", "note": "(stereo not shown)", "hERG current change (%, negative = inhibition) at 1uM": 9.81}
{"smiles": "CC(C)(C)c1ccc(S(=O)(=O)N(CCCN2CCOCC2)Cc2cccs2)cc1.O=C(O)C(=O)O", "hERG current change (%, negative = inhibition) at 1uM": 2.93}
{"smiles": "COc1ccc(Cl)cc1S(=O)(=O)N1CCN(C)CC1", "hERG current change (%, negative = inhibition) at 1uM": 11.3}
{"smiles": "Cl.Cn1cccc1CNCc1ccc(F)cc1", "hERG current change (%, negative = inhibition) at 1uM": 13.7}
{"smiles": "CC(C)OC(=O)c1ccc(NC(=O)Cn2c(-c3nonc3N)nc3ccccc32)cc1", "hERG current change (%, negative = inhibition) at 1uM": 17.1}
{"smiles": "COc1ccc(C(=O)c2nc3ccccc3n2C(C)C)cc1", "hERG current change (%, negative = inhibition) at 1uM": 5.44}
{"smiles": "COc1cccc(C(=O)NCc2ccco2)c1OC", "hERG current change (%, negative = inhibition) at 1uM": 10.8}
{"smiles": "CCN(CC)c1ccc(/C=N/NC(=O)c2c[nH]c3ccccc23)cc1", "hERG current change (%, negative = inhibition) at 1uM": 9.89}
{"smiles": "Cc1ccc(CNC(=O)C(NS(=O)(=O)c2cccc3nsnc23)c2ccccc2)cc1", "note": "(stereo not shown)", "hERG current change (%, negative = inhibition) at 1uM": -8.32}
{"smiles": "COc1ccc(CN(C)CC(=O)N2CCc3ccccc3C2)cc1", "hERG current change (%, negative = inhibition) at 1uM": -2.69}
{"smiles": "Cc1cccc(C(C)C)c1NC(=O)COC(=O)CN1C(=O)C2CC=CCC2C1=O", "note": "(stereo not shown)", "hERG current change (%, negative = inhibition) at 1uM": 16}
{"smiles": "C#CCSc1ncc(-c2ccccc2)cn1", "hERG current change (%, negative = inhibition) at 1uM": 10.2}
{"smiles": "C/C(=N\\NC(=O)C1(C)CC1(Br)Br)c1ccc(C)cc1C", "note": "(stereo not shown)", "hERG current change (%, negative = inhibition) at 1uM": 12.9}
{"smiles": "COC(=O)C1C(c2ccc(OC)cc2)C(C(=O)OC)S(=O)(=O)C(CCN2CCCCC2)S1(=O)=O", "note": "(stereo not shown)", "hERG current change (%, negative = inhibition) at 1uM": 7.99}
{"smiles": "Cc1ccccc1CN1C(=O)[C@@H]2Cc3c([nH]c4ccccc34)C(C)(C)N2C1=O", "hERG current change (%, negative = inhibition) at 1uM": 12.9}
{"smiles": "COC(=O)Cc1cn(-c2ncc(C(F)(F)F)cc2Cl)c2ccccc12", "hERG current change (%, negative = inhibition) at 1uM": 13.7}
{"smiles": "S=c1[nH]nc(-c2ccc(Cl)cc2Cl)n1Cc1ccccc1", "hERG current change (%, negative = inhibition) at 1uM": 4.66}
{"smiles": "Cc1ccnc(NC(=O)c2cccc([N+](=O)[O-])c2C)c1", "hERG current change (%, negative = inhibition) at 1uM": -4.11}
{"smiles": "Cc1ccc(S(=O)(=O)N2CCC(C(=O)N[C@@H](C)C(=O)NCCc3ccccc3)CC2)cc1", "hERG current change (%, negative = inhibition) at 1uM": 13.4}
{"smiles": "Cc1c(Cl)cccc1N1C(=O)CC(NNC(=O)c2cccnc2)C1=O", "note": "(stereo not shown)", "hERG current change (%, negative = inhibition) at 1uM": 15.9}
{"smiles": "CCCCCCCCCCOC(=O)Cn1c(COc2ccccc2)[n+](C)c2ccccc21.[Cl-]", "hERG current change (%, negative = inhibition) at 1uM": -46.5}
{"smiles": "O=c1c2c(c(-c3ccccc3)nn1Cc1ccccc1)CCCC2", "hERG current change (%, negative = inhibition) at 1uM": 8.22}
{"smiles": "O=C(CSc1nnc(-c2ccncc2)o1)Nc1ccc(F)c(F)c1", "hERG current change (%, negative = inhibition) at 1uM": 1.5}
{"smiles": "Nc1cc(C(=O)OCC(=O)NC(c2ccccc2)c2ccccc2)ccc1Cl", "hERG current change (%, negative = inhibition) at 1uM": 10}
{"smiles": "CCOc1ccc(NC(=O)CC2C(=O)N(c3ccccc3)C(=O)N2CCOC)cc1", "note": "(stereo not shown)", "hERG current change (%, negative = inhibition) at 1uM": 6.77}
{"smiles": "COc1cc(/C=N/n2c(-c3ccc4c(c3)NC(=O)CO4)csc2=Nc2cccc(C)c2)ccc1O", "hERG current change (%, negative = inhibition) at 1uM": -5.39}
{"smiles": "CN(C)S(=O)(=O)c1cccc(NC(=S)NN=C(Cc2ccccc2)Cc2ccccc2)c1", "hERG current change (%, negative = inhibition) at 1uM": -4.13}
{"smiles": "O=C(Nc1ccc(NC(=O)C2CC2)nc1)c1cccc(F)c1", "hERG current change (%, negative = inhibition) at 1uM": 5.67}
{"smiles": "CCOC(=O)Nc1ccc2c(C)cc(=O)oc2c1", "hERG current change (%, negative = inhibition) at 1uM": 1.32}
{"smiles": "O=C(Nc1ccccc1)N1CCN(c2ccc(C(F)(F)F)cn2)CC1", "hERG current change (%, negative = inhibition) at 1uM": -4.48}
{"smiles": "CCCCn1c(=O)c(CCC(=O)O)nc2ccccc21", "hERG current change (%, negative = inhibition) at 1uM": 12.4}
{"smiles": "OCC1(CCc2ccccc2)CCN(C/C=C/c2ccccc2)CC1", "hERG current change (%, negative = inhibition) at 1uM": -86.4}
